Test results from the RNAGym collection of RNA variant scans (doi:10.1101/gad.245936.114).
Variants at the floor of the assay are shown more often than the library holds them.

B1: tRNA (parent)
chain: CUCUCGGUAGCCAAGUUGGUUUAAGGCGCAAGACUUUAAUUUAUCACUACGAAAUCUUGAGAUCGGGCGUUCGACUCGCCCCCGGGAGAUUUUUUCCUCGAGCAA

Variants of: B1
Test: nonsense suppression (GFP-seq) (ratio to wild type); higher = more function; SUP4oc tRNA, yeast GFP reporter sort-seq
In short: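 Yeast carrying genome-integrated SUP4oc tRNA variants from a library with ~3% random mutations were grown in raffinose/galactose medium with 80 mg/L adenine. Each strain also carried a galactose-driven GFP ochre reporter and RFP. Cells were sorted into GFP/RFP bins, and each bin was Illumina-sequenced (phred ≥30). Nonsense suppression (GFPSEQ) is the bin median GFP/RFP, weighted by each variant's estimated cell share per bin, relative to wild-type SUP4oc; variants needed ≥100 reads and ≥30 cells.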

Nonsense suppression, 0.031:
C11U A24U

Nonsense suppression, 0.034:
C11U U63G

Nonsense suppression, 0.212:
C11U G26A U63C

Nonsense suppression, ≤ 0.026:
C11U A24G C72G C79U A87C
C11U A24G C72U C79U A87C
C11U A24U C34U
C11U A30C G65C G85C
C11U A31G C77G
C11U A33G
C11U A33G A74C C83A
C11U A33U G88A
C11U A54G G69A
C11U A60G G69U G84A
C11U A60U G73C
C11U A62U C80A
C11U A62U U63C
C11U A74U
C11U A89C
C11U C29A
C11U C29A U71C G84U
C11U C34A A54U
C11U C34G
C11U C56G G73C G78A C79G
C11U C56U U70G A87U
C11U C68A U76C C83G
C11U C68U
C11U C77G
C11U C79G
C11U C79U
C11U G15U A24U A89C
C11U G18A
C11U G18A C64G
C11U G18A U76C
C11U G18C U20G U76G
C11U G18U A24G C29U
C11U G18U A60G
C11U G18U A62C C64A C82A
C11U G19A
C11U G19A A33C
C11U G19C
C11U G19U A23U C83U
C11U G19U C72A U76C G86U
C11U G25C A74U
C11U G26A A60G U71G
C11U G26A A60U C80A
C11U G26C G67U
C11U G26U G88U
C11U G28C
C11U G28U G59A A60C G85C
C11U G32A U63G C68U
C11U G32U
C11U G32U G69A C82G G84A G88A
C11U G59U
C11U G59U A62C U71C
C11U G61A
C11U G61C A62U
C11U G65A
C11U G69C
C11U G69U
C11U G78U
C11U G85C
C11U G85C A87G
C11U U16C C56G C82G C83A
C11U U17A C34G A60G
C11U U17A G18C A30G
C11U U17G
C11U U17G U55G U63C C79U C82G
C11U U20A U22C A62U G65U A89C
C11U U20C G85U
C11U U21A A89G
C11U U21C
C11U U21C G73U G88C
C11U U21G A89C
C11U U35G G67U
C11U U55G
C11U U57A G88C
C11U U57C
C11U U58A
C11U U63C
C11U U71A
C11U U76C C83A
C11U U76G
C12A A13C G18U U63A
